# The supplement of paper PMC8728848
# The other results are listed elsewhere or left out.
# B1: AT1G15820(2) (Arabidopsis thaliana), Q9LMQ2 (protein)
# chain: MAMAVSGAVLSGLGSSFLTGGKRGATALASGVGTGAQRVGRKTLIVAAAAAQPKKSWIPAVKGGGNFLDPEWLDGSLPGDFGFDPLGLGKDPAFLKWYREAELIHGRWAMAAVLGIFVGQAWSGVAWFEAGAQPDAIAPFSFGSLLGTQLLLMGWVESKRWVDFFNPDSQSVEWATPWSKTAENFANYTGDQGYPGGRFFDPLGLAGKNRDGVYEPDFEKLERLKLAEIKHSRLAMVAMLIFYFEAGQGKTPLGALGL
# Experiments:
# Assay in all cases: glycan array binding signal (z-score within array); higher = stronger binding
# Details in all cases: glycan notation: IUPAC condensed, linker removed
# [1] = molecular target: Neu5Ac(a2-3)Gal(b1-3)GlcNAc(b1-2)Man
# Outline: (§1)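 Glycan array data were curated from 3228 arrays in the Consortium for Functional Glycomics database and kept only where the protein sequence was available. Glycan names were converted to IUPAC-condensed notation, and columns mapping to the same glycan were averaged. The binding signal is a within-array Z-score, averaged across arrays of the same protein sequence at different concentrations or buffers and across linkers. Negative Z-scores can be read as non-binding.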
# [2] = molecular target: Neu5Ac(a2-3)Gal(b1-3)GlcNAc(b1-2)Man(a1-3)[GlcNAc(b1-4)][Neu5Ac(a2-3)Gal(b1-3)GlcNAc(b1-2)Man(a1-6)]Man(b1-4)GlcNAc(b1-4)GlcNAc
# Outline: as §1
# [3] = molecular target: Neu5Ac(a2-3)Gal(b1-3)GlcNAc(b1-2)Man(a1-3)[Neu5Ac(a2-3)Gal(b1-3)GlcNAc(b1-2)Man(a1-6)]Man(b1-4)GlcNAc(b1-4)GlcNAc
# Outline: as §1
# [4] = molecular target: Neu5Ac(a2-3)Gal(b1-3)GlcNAc(b1-3)Gal(b1-3)GlcNAc
# Outline: as §1
# [5] = molecular target: Neu5Ac(a2-3)Gal(b1-3)GlcNAc(b1-3)Gal(b1-4)GlcNAc
# Outline: as §1
# [6] = molecular target: Neu5Ac(a2-3)Gal(b1-3)GlcNAc(b1-3)GalNAc
# Outline: as §1
# [7] = molecular target: Neu5Ac(a2-3)Gal(b1-3)GlcNAc(b1-4)Gal(b1-4)Glc
# Outline: as §1
# [8] = molecular target: Neu5Ac(a2-3)Gal(b1-3)GlcNAc(b1-6)GalNAc
# Outline: as §1
# [9] = molecular target: Neu5Ac(a2-3)Gal(b1-3)GlcNAc6S
# Outline: as §1
# [10] = molecular target: Neu5Ac(a2-3)Gal(b1-3)[Fuc(a1-4)]GlcNAc
# Outline: as §1
# [11] = molecular target: Neu5Ac(a2-3)Gal(b1-3)[Fuc(a1-4)]GlcNAc(b1-3)Gal(b1-3)[Fuc(a1-4)]GlcNAc
# Outline: as §1
# [12] = molecular target: Neu5Ac(a2-3)Gal(b1-3)[Fuc(a1-4)]GlcNAc(b1-3)Gal(b1-4)[Fuc(a1-3)]GlcNAc
# Outline: as §1
# [13] = molecular target: Neu5Ac(a2-3)Gal(b1-3)[GlcNAc(b1-6)]GalNAc
# Outline: as §1
# [14] = molecular target: Neu5Ac(a2-3)Gal(b1-3)[Neu5Ac(a2-6)]GalNAc
# Outline: as §1
# [15] = molecular target: Neu5Ac(a2-3)Gal(b1-3)[Neu5Ac(a2-6)]GlcNAc(b1-3)[Fuc(a1-3)[Gal(b1-4)]GlcNAc(b1-6)]Gal(b1-4)Glc
# Outline: as §1
# [16] = molecular target: Neu5Ac(a2-3)Gal(b1-3)]Neu5Ac(a2-3)Gal(b1-4)]GlcNAc
# Outline: as §1
# Neu5Ac(a2-3)Gal(b1-4)Glc = molecular target: Neu5Ac(a2-3)Gal(b1-4)Glc
# Outline: as §1
# [17] = molecular target: Neu5Ac(a2-3)Gal(b1-4)GlcNAc
# Outline: as §1
# [18] = molecular target: Neu5Ac(a2-3)Gal(b1-4)GlcNAc(b1-2)Man
# Outline: as §1
# [19] = molecular target: Neu5Ac(a2-3)Gal(b1-4)GlcNAc(b1-2)Man(a1-3)[GlcNAc(b1-4)][Neu5Ac(a2-3)Gal(b1-4)GlcNAc(b1-2)Man(a1-6)]Man(b1-4)GlcNAc(b1-4)GlcNAc
# Outline: as §1
# [20] = molecular target: Neu5Ac(a2-3)Gal(b1-4)GlcNAc(b1-2)Man(a1-3)[Neu5Ac(a2-3)Gal(b1-4)GlcNAc(b1-2)Man(a1-6)]Man(b1-4)GlcNAc(b1-4)GlcNAc
# Outline: as §1
# [21] = molecular target: Neu5Ac(a2-3)Gal(b1-4)GlcNAc(b1-2)Man(a1-3)[Neu5Ac(a2-3)Gal(b1-4)GlcNAc(b1-2)Man(a1-6)]Man(b1-4)GlcNAc(b1-4)[Fuc(a1-6)]GlcNAc
# Outline: as §1
# [22] = molecular target: Neu5Ac(a2-3)Gal(b1-4)GlcNAc(b1-2)Man(a1-3)[Neu5Ac(a2-6)Gal(b1-4)GlcNAc(b1-2)Man(a1-6)]Man(b1-4)GlcNAc(b1-4)GlcNAc
# Outline: as §1
# [23] = molecular target: Neu5Ac(a2-3)Gal(b1-4)GlcNAc(b1-2)[Neu5Ac(a2-3)Gal(b1-4)GlcNAc(b1-4)]Man(a1-3)[GlcNAc(b1-4)][Neu5Ac(a2-3)Gal(b1-4)GlcNAc(b1-2)[Neu5Ac(a2-3)Gal(b1-4)GlcNAc(b1-6)]Man(a1-6)]Man(b1-4)GlcNAc(b1-4)GlcNAc
# Outline: as §1
# [24] = molecular target: Neu5Ac(a2-3)Gal(b1-4)GlcNAc(b1-2)[Neu5Ac(a2-3)Gal(b1-4)GlcNAc(b1-4)]Man(a1-3)[GlcNAc(b1-4)][Neu5Ac(a2-3)Gal(b1-4)GlcNAc(b1-4)Man(a1-6)]Man(b1-4)GlcNAc(b1-4)GlcNAc
# Outline: as §1
# [25] = molecular target: Neu5Ac(a2-3)Gal(b1-4)GlcNAc(b1-2)[Neu5Ac(a2-3)Gal(b1-4)GlcNAc(b1-6)]Man(a1-6)[Neu5Ac(a2-3)Gal(b1-4)GlcNAc(b1-2)Man(a1-3)]Man(b1-4)GlcNAc(b1-4)GlcNAc
# Outline: as §1
# [26] = molecular target: Neu5Ac(a2-3)Gal(b1-4)GlcNAc(b1-2)[Neu5Ac(a2-3)Gal(b1-4)GlcNAc(b1-6)]Man(a1-6)[Neu5Ac(a2-3)Gal(b1-4)GlcNAc(b1-2)Man(a1-3)][GlcNAc(b1-4)]Man(b1-4)GlcNAc(b1-4)GlcNAc
# Outline: as §1
# [27] = molecular target: Neu5Ac(a2-3)Gal(b1-4)GlcNAc(b1-3)Gal
# Outline: as §1
# [28] = molecular target: Neu5Ac(a2-3)Gal(b1-4)GlcNAc(b1-3)Gal(b1-3)GlcNAc
# Outline: as §1
# [29] = molecular target: Neu5Ac(a2-3)Gal(b1-4)GlcNAc(b1-3)Gal(b1-4)GlcNAc
# Outline: as §1
# [30] = molecular target: Neu5Ac(a2-3)Gal(b1-4)GlcNAc(b1-3)Gal(b1-4)GlcNAc(b1-2)Man(a1-3)[Neu5Ac(a2-3)Gal(b1-4)GlcNAc(b1-3)Gal(b1-4)GlcNAc(b1-2)Man(a1-6)]Man(b1-4)GlcNAc(b1-4)GlcNAc
# Outline: as §1
# [31] = molecular target: Neu5Ac(a2-3)Gal(b1-4)GlcNAc(b1-3)Gal(b1-4)GlcNAc(b1-3)Gal(b1-4)GlcNAc
# Outline: as §1
# [32] = molecular target: Neu5Ac(a2-3)Gal(b1-4)GlcNAc(b1-3)Gal(b1-4)GlcNAc(b1-3)Gal(b1-4)GlcNAc(b1-2)Man(a1-3)[Neu5Ac(a2-3)Gal(b1-4)GlcNAc(b1-3)Gal(b1-4)GlcNAc(b1-3)Gal(b1-4)GlcNAc(b1-2)Man(a1-6)]GalNAc
# Outline: as §1
# [33] = molecular target: Neu5Ac(a2-3)Gal(b1-4)GlcNAc(b1-3)Gal(b1-4)GlcNAc(b1-3)GalNAc
# Outline: as §1
# [34] = molecular target: Neu5Ac(a2-3)Gal(b1-4)GlcNAc(b1-3)Gal(b1-4)GlcNAc(b1-3)[Neu5Ac(a2-3)Gal(b1-4)GlcNAc(b1-3)Gal(b1-4)GlcNAc(b1-6)]GalNAc
# Outline: as §1
# [35] = molecular target: Neu5Ac(a2-3)Gal(b1-4)GlcNAc(b1-3)Gal(b1-4)GlcNAc(b1-6)[Gal(b1-3)]GalNAc
# Outline: as §1
# [36] = molecular target: Neu5Ac(a2-3)Gal(b1-4)GlcNAc(b1-3)Gal(b1-4)[Fuc(a1-3)]GlcNAc
# Outline: as §1
# [37] = molecular target: Neu5Ac(a2-3)Gal(b1-4)GlcNAc(b1-3)GalNAc
# Outline: as §1
binder,measurement,setting,value
B1,glycan array binding signal (z-score),[1],-0.194
same,glycan array binding signal (z-score),[2],-0.409
same,glycan array binding signal (z-score),[3],-0.021
same,glycan array binding signal (z-score),[4],-0.526
same,glycan array binding signal (z-score),[5],-0.299
same,glycan array binding signal (z-score),[6],-0.486
same,glycan array binding signal (z-score),[7],-0.338
same,glycan array binding signal (z-score),[8],-0.075
same,glycan array binding signal (z-score),[9],-0.495
same,glycan array binding signal (z-score),[10],-0.367
same,glycan array binding signal (z-score),[11],0.497
same,glycan array binding signal (z-score),[12],-0.331
same,glycan array binding signal (z-score),[13],-0.351
same,glycan array binding signal (z-score),[14],0.346
same,glycan array binding signal (z-score),[15],0.231
same,glycan array binding signal (z-score),[16],0.533
same,glycan array binding signal (z-score),Neu5Ac(a2-3)Gal(b1-4)Glc,0.215
same,glycan array binding signal (z-score),[17],-0.087
same,glycan array binding signal (z-score),[18],0.776
same,glycan array binding signal (z-score),[19],-0.433
same,glycan array binding signal (z-score),[20],-0.363
same,glycan array binding signal (z-score),[21],-0.659
same,glycan array binding signal (z-score),[22],-0.086
same,glycan array binding signal (z-score),[23],-0.252
same,glycan array binding signal (z-score),[24],-0.138
same,glycan array binding signal (z-score),[25],0.415
same,glycan array binding signal (z-score),[26],-0.594
same,glycan array binding signal (z-score),[27],-0.098
same,glycan array binding signal (z-score),[28],-0.133
same,glycan array binding signal (z-score),[29],-0.506
same,glycan array binding signal (z-score),[30],0.218
same,glycan array binding signal (z-score),[31],-0.091
same,glycan array binding signal (z-score),[32],0.49
same,glycan array binding signal (z-score),[33],-0.294
same,glycan array binding signal (z-score),[34],-0.444
same,glycan array binding signal (z-score),[35],-0.345
same,glycan array binding signal (z-score),[36],0.338
same,glycan array binding signal (z-score),[37],-0.47
